# Measurements: the supplement of paper PMC3334620
# In all, about 33,000 sequences were measured (“E-score (-0.5 to 0.5)”: median about -0.04, highest 2% from about 0.36 on). The list shows a part of the results.
# Target: T1, Hmlalpha2 (UniProt P0CY09)
# T1 sequence: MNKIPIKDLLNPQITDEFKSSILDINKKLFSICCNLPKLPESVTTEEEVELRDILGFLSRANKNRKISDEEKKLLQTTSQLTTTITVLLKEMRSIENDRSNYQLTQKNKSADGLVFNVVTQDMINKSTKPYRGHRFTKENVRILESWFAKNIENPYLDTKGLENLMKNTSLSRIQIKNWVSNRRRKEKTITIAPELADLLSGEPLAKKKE
# Experiment: PBM E-score (8-mer binding enrichment) (E-score (-0.5 to 0.5)); higher = stronger / more preferred TF binding; most listed sequences are background and not binding sites
# Conditions: protein concentration: 200 nM; construct: GST-full length
# Experimental: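 Universal 'all 10-mer' protein binding microarrays (Agilent AMADID 015681) probed with GST-tagged S. cerevisiae TFs (full-length or DBD) made by in vitro transcription/translation (PURExpress), about 100-200 nM. Bound TF was detected with fluorescent anti-GST. Each ungapped 8-mer (which stands for itself and its reverse complement) is scored by the PBM enrichment score (E-score), a modified Wilcoxon-Mann-Whitney statistic from -0.5 to +0.5, computed with the Universal PBM Analysis Suite. Scale: above 0.35 generally sequence-specific binding.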
row,Sequence,PBM E-score
1,GCTACGCA,0.0474
2,ATTCACAC,0.264
3,GTGAGCAA,-0.0735
4,GCGATGCC,-0.117
5,GAGTCAGC,-0.236
6,CCTAGGAC,-0.191
7,CCCCTCAC,-0.292
8,ACAAATCG,-0.0119
9,AAGATAGG,-0.196
10,AGCATATG,-0.132
11,AAGGCCCG,-0.217
12,ATTGGGGC,-0.183
13,CTTATCGA,0.0368
14,TAAACCCA,0.0925
15,GTCTATAA,0.0897
16,CATGAGGC,-0.166
17,ACACTATA,0.117
18,GGTATATA,0.189
19,AGCTCCAT,-0.108
20,ATCAACAG,0.136
21,AGATAGAA,-0.166
22,ACAGGGAC,-0.0336
23,CTCCGTGC,-0.157
24,CATGCGAC,0.0966
25,CAAATTTA,0.212

row,Sequence,PBM E-score
1,GAGCACAA,-0.0331
2,ACTCGTCC,-0.0333
3,CCGCCGCC,-0.199
4,AATTGGAG,-0.163
5,GCAAGCAA,0.0131
6,CTTCGAAG,-0.327
7,GATCGTGC,0.0557
8,CACCAGAC,-0.0592
9,GAAAAGCA,-0.106
10,AACGGTAG,-0.0836
11,GCACTGGC,-0.209
12,ATGCTTAC,-0.0445
13,TACATTCA,0.277
14,CCACCGCA,-0.259
15,TACAGACA,0.227
16,CCCGCGCA,-0.00907
17,TGACGACA,0.199
18,GGTTTTAC,0.246
19,CCTTCCGA,-0.19
20,CCCCTACA,0.112
21,ACGCAAAA,0.145
22,AGTTTCAT,0.0534
23,GCAGCATA,-0.228
24,ATCCTCAG,-0.00817
25,CGCCTCGA,0.0285

row,Sequence,PBM E-score
1,AACAAAGC,0.34
2,ATCTTGTG,-0.0105
3,AAGGAAGT,0.0223
4,CATAACCG,0.0165
5,CCCCGGCC,-0.197
6,ACGCGAGG,0.0423
7,AAGCGGTA,0.0508
8,CCTCTATC,-0.0831
9,AGTGTCAT,0.172
10,AAGATAAA,0.288
11,CTCATCAG,0.0334
12,GCTTCACC,-0.188
13,AGGATTTA,0.0207
14,CAGCGTGA,-0.0105
15,AGGACCGA,-0.157
16,TCTCCCAA,-0.192
17,ATGTTTAG,0.33
18,GACGAAAC,-0.0357
19,ACATTCCC,0.157
20,AGTGTGGA,-0.073
21,ATACCCAC,-0.0577
22,ATTCGACG,-0.00029
23,TATTCAAA,0.209
24,AGGTTTGC,0.0445
25,ACTATGGC,0.0658

row,Sequence,PBM E-score
1,GGTGCGCA,-0.0643
2,ACAGATGT,0.0786
3,GCGCGCGA,-0.0185
4,AGTCGACT,0.101
5,ACTTGGAG,-0.127
6,CTGATGTC,-0.0651
7,ACTGAACC,-0.136
8,AACGGCGA,0.00205
9,GGGCATCA,-0.287
10,GACTGATA,-0.292
11,CGGTACAC,0.152
12,AACAAGAC,0.302
13,ACTAACGC,0.174
14,AGCTCCGC,-0.0433
15,AGGGGGGA,-0.325
16,AATGGTGC,-0.0678
17,ATTCTTCA,0.0824
18,TAGTTCCA,0.135
19,CACTGGGA,-0.145
20,AATATCTG,-0.118
21,GCACTACA,0.232
22,ATCGATTA,0.267
23,CCAATGCC,-0.258
24,ACGTATCT,0.0288
25,ATTTAACG,0.355

row,Sequence,PBM E-score
1,GAAACCGC,0.0628
2,AATGTTGG,0.137
3,AAGGGCCT,-0.136
4,CGTAGCCC,-0.0733
5,GAGCGTCC,-0.115
6,AATGGACG,0.135
7,AGAGTCGC,-0.17
8,ACTCCTAG,-0.0148
9,ATGACACC,0.0347
10,TCGGAACA,0.144
11,GGGGCTGA,-0.248
12,AGCATTCG,-0.151
13,GGATCTTA,-0.109
14,ATCATAAC,0.249
15,CTAGAAGC,-0.205
16,CCAGTAGA,-0.0536
17,ACAGATTA,-0.0244
18,AGGATGCC,-0.132
19,AGTAGAAC,0.0855
20,ACCTTAGA,-0.138
21,AGAAGCTG,-0.11
22,CGGAGTCA,-0.0965
23,AGTATAAC,0.216
24,CAGGGCCG,-0.121
25,CAACCCTC,-0.117

row,Sequence,PBM E-score
1,ATTGCTGC,0.00514
2,CCCGGCTA,-0.265
3,GGTTAACA,0.412
4,CTATTAAA,0.0983
5,AATTAGTG,0.232
6,CCTGGCAC,-0.168
7,GAATCCCA,-0.143
8,TCGTTCAA,0.11
9,TATCCCGA,-0.0202
10,CAGGTCTC,-0.177
11,CGCGCGGC,-0.012
12,CAAAAAGC,-0.141
13,ATCTTAAC,0.339
14,AACAATTC,0.117
15,AGGTTTAG,-0.124
16,ATTGTCCA,-0.0263
17,GCTCGGCA,-0.136
18,CTGAGTAC,-0.0411
19,CCGGCATA,-0.22
20,CGTCTAAA,0.00262
21,CAATCTAC,0.2
22,GGTGCGAC,-0.189
23,CCAGATAC,-0.233
24,GCTCAATA,-0.0756
25,CAGAATAA,0.0622

row,Sequence,PBM E-score
1,AACCCTAT,0.00499
2,AGTTCAAA,0.0745
3,AGGCCTAG,-0.209
4,GCATTATA,0.0956
5,CTGCAGAC,0.00028
6,ATAAATAG,0.0878
7,AAGTTCGC,-0.0506
8,ACTGCCCC,-0.336
9,TCAGTAGA,-0.138
10,GGAATGAA,0.0613
11,AAGTACAT,0.383
12,TCCTGTCA,-0.0189
13,CTAGGAAG,-0.16
14,CACCCGTG,-0.0312
15,CGTGGTTC,-0.166
16,AATTCCCC,-0.214
17,CTTTAGAC,0.116
18,GTCTATTA,0.0186
19,GAACTGTC,-0.114
20,TTATAAAA,0.199
21,ACTCGCAG,-0.176
22,AGGCGATG,-0.128
